Assay results from PMC4336329 (PLoS ONE, 2015).
Hit rate of the full screen: of about 310,000 compounds, about 14,000 (4.5%) showed an effect of 50% or more. Effects have a minus sign here. Some of the results follow.

target: human ether-à-go-go-related gene (hERG) potassium channel (human, UniProt Q12809); assay: primary screen, population patch clamp on CHO cells stably expressing hERG
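Also: peak tail current of the secondary pulse compared with the same well before compound.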

human ether-à-go-go-related gene (hERG) potassium channel, sequence (Q12809 whole entry, looked up): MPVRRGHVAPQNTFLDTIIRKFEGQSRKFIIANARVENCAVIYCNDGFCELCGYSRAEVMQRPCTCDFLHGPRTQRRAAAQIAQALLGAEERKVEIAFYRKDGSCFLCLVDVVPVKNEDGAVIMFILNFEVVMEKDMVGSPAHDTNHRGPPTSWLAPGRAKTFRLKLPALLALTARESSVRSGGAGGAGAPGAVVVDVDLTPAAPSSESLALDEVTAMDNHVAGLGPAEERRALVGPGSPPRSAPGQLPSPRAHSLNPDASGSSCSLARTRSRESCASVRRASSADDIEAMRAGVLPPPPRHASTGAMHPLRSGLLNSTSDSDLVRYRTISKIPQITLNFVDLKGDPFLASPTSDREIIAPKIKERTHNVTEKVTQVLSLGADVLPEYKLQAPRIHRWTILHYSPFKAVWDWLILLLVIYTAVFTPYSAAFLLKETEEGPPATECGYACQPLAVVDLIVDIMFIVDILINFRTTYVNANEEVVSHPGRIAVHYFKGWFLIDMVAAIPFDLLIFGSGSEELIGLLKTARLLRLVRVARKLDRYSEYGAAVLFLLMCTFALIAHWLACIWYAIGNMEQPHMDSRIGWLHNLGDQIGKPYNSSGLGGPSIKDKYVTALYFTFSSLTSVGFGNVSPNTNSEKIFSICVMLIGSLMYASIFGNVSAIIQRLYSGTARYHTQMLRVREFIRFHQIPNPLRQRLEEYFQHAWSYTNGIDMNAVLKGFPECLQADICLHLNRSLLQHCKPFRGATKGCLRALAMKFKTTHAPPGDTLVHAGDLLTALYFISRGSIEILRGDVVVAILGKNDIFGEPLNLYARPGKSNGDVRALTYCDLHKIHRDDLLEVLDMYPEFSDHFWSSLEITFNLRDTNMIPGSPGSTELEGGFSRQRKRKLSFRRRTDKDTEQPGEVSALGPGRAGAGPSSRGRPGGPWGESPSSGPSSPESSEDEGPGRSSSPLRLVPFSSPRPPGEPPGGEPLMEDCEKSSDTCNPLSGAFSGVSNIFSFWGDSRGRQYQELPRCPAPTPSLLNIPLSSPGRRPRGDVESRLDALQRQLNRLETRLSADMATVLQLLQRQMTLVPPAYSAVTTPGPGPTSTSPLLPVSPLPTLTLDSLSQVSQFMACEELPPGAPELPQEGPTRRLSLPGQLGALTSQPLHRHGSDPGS

| SMILES | hERG current change (%, negative = inhibition) at 10uM [%] |
| --- | --- |
| CCOC(=O)C1=C(N)Oc2ccc3ccccc3c2C1c1ccc(O)c(OC)c1 (centres unmarked) | 8.82 |
| Cc1nc(N2CCN(C(=O)c3cccs3)CC2)c2c3c(sc2n1)CCCC3 | -63.8 |
| COc1ccccc1NC1=NC(c2ccc(Cl)cc2)N=C(N)N1 (centres unmarked) | -6.65 |
| CCCCCCCC1c2c(c(C)c(C)oc2=O)Oc2c(C)c(C)oc(=O)c21 | 11.9 |
| Cc1ccc(C(C(=O)NC2CCCCC2)N(CCCN2CCOCC2)C(=O)c2snc(C(N)=O)c2N)cc1 (centres unmarked) | -17.8 |
| O=C(NCCC1CCCCN1S(=O)(=O)c1ccc(Cl)cc1)C(=O)NCc1cccnc1 (centres unmarked) | -46.3 |
| Cc1ccc(CNC(=O)COC(=O)c2ccc(S(=O)(=O)N(C)C)cc2)cc1 | 11 |
| Cc1ccc(CNC(=O)c2ccc(N3CCC4(CC3)CC(c3cccc(Br)c3)=NO4)c(NC(=O)c3ccccc3)c2)cc1 | 11.9 |
| COc1ccc(N2CCN(C(=O)C3CC(=O)N(c4ccc(C)cc4)C3)CC2)cc1 (centres unmarked) | -35.1 |
| Cc1ccc(C(=O)COC(=O)c2cc(Cl)ccc2O)cc1[N+](=O)[O-] | 10.4 |
| CCn1c(SCC(=O)Nc2cc(C)on2)nc2c(c1=O)SCC2 | 13.8 |
| COc1ccc(CN2CC(C(=O)NCCc3ccccc3)CC2=O)cc1 (centres unmarked) | -29.7 |
| COC1CCN(C(=O)CC2C(=O)NCCN2CC2CCCCC2)CC1 (centres unmarked) | 13.3 |
| N#CC1=C(N)N2C(=C(C#N)C1c1cccc(Br)c1)Nc1ccccc12 (centres unmarked) | -11.4 |
| COc1cc(-c2c(-c3ccc4c(c3)OCO4)noc2-c2ccsc2)ccc1F | 10.1 |
| COc1ccc(N(CC(=O)Nc2ccccc2C)S(=O)(=O)c2ccccc2[N+](=O)[O-])c(OC)c1 | -4.45 |
| O=Cc1cc(-c2ccccc2)[nH]c1-c1ccccc1 | 22.5 |
| COc1ccccc1N1CCN(CC(O)COc2c(OC)cccc2OC)CC1.Cl (centres unmarked) | -48.4 |
| O=c1[nH]n(-c2ccccc2)c(=O)c(Cl)c1Cl | 0.533 |

| SMILES | hERG current change (%, negative = inhibition) at 10uM [%] |
| --- | --- |
| CCOC(=O)c1cc(C#N)c(N2CCCC2)nc1-c1ccccc1 | -7.5 |
| COC(=O)C1CN(C(=O)c2cccc(OC(F)F)c2)c2ccccc2O1 (centres unmarked) | 4.03 |
| O=C(Cc1csc(Nc2nc(=S)[nH]c3ccccc23)n1)NCc1cccc(Cl)c1 | -16.3 |
| CC(C)CCOCC(=O)Nc1cccc(C(=O)O)c1 | 22.5 |
| Cc1cc(S(=O)(=O)NCCN2CCOCC2)c(C)s1.Cl | 8.27 |
| O=C(O)c1ccc2c3n(nc2c1)-c1ccc(Cl)cc1CO3 | 0.84 |
| Cc1ccc(N2CN=c3s/c(=C\c4cccnc4)c(=O)n3C2)cc1 | -10.9 |
| CCc1cccc(NC(=O)C(NC(=O)C2CCCCC2)C(C)C)c1 (centres unmarked) | 13.1 |
| CC(C)N(Cc1nccn1C)C(=O)c1cc(COc2ccc(F)cc2Cl)on1 | 0.188 |
| COc1ccc(-c2nc(Cn3c(SCc4ccc(F)cc4)nc4ccncc43)c(C)o2)cc1OC | -55.6 |
| CCN1CCN(CCn2c(=S)[nH]c3ccccc3c2=O)CC1 | -10.5 |
| O=C(Nc1ccc(N2CCOCC2)c(F)c1)c1ccncc1 | 10 |
| O=C(CN1C(=O)C2CC=CCC2C1=O)OCCN1C(=O)c2ccccc2C1=O (centres unmarked) | 3.66 |
| CN(C)C(=O)c1c2c(nc3ccccc13)CCCC2 | 21.3 |
| CCOC(=O)C1CCN(C(=O)C23CC4CC(CC(C4)C2)C3)CC1 | -6.68 |
| O=C(c1cc(-c2ccccc2)nc2ccccc12)N1CCCC1 | 2.55 |
| O=[N+]([O-])c1ccc(Sc2cccc3cccnc23)cc1 | -14.9 |
| COc1ccc(NC(=O)Cc2coc3cc(C)ccc23)cn1 | 11.1 |
| CCCOc1ccccc1NS(=O)(=O)c1ccc2[nH]c(=O)[nH]c2c1 | 2.91 |

| SMILES | hERG current change (%, negative = inhibition) at 10uM [%] |
| --- | --- |
| COc1cccc(Oc2cn[nH]c2-c2ccc(OC)cc2O)c1 | -3.27 |
| COc1ccc(-c2nn(-c3ccccc3)cc2/C=N/Nc2ccc3ccccc3n2)cc1OC | 5.14 |
| O=C(C1CCCO1)N1CCN(S(=O)(=O)c2cc(F)ccc2F)CC1 (centres unmarked) | 17.7 |
| CN1CCN(NC(=O)c2cc(-c3cccc(Cl)c3)nc3ccccc23)CC1 | -35.9 |
| Cc1ccc(C)c(OCCCC(=O)Nc2nccs2)c1 | 12.9 |
| COc1cccc(NC(=O)CCc2c(C)nc3nc(CNC(=O)c4cccc(F)c4)nn3c2C)c1 | -47.3 |
| COc1ccc(CCC(=O)N2CCC3(CC2)OCCO3)cc1 | -12.6 |
| Clc1cccc(Cc2nn[nH]n2)c1 | 19.7 |
| CCCCNC(=S)Nc1ccc(OC)nc1 | 30.8 |
| Clc1ccc(-c2cc(-c3ccccn3)on2)c(Cl)c1 | 15.9 |
| COc1ccccc1NC(=S)N=Nc1c(O)[nH]c2ccc(Br)cc12 | -1.23 |
| CCn1c(SCC#N)nc2c(c1=O)C1(CCCC1)Cc1ccccc1-2 | 2.38 |
| CC(C)(C)c1ccc(C(=O)Nc2sc3c(c2C(=O)O)CCC3)cc1 | 20.3 |
| CC(C)(CO)NS(=O)(=O)c1ccc2c(c1)oc(=O)c1cc(S(=O)(=O)NC(C)(C)CO)ccc12 | -3.11 |
| Cc1cc(C)cc(-n2ncc3c2CCCC3NC(=O)c2cc(C)n(C)n2)c1 (centres unmarked) | 8.12 |
| O=C(O)c1cccc(Cn2c(Cl)c(/C=N/NC(=O)c3cccc(O)c3)sc2=O)c1 | 27.8 |
| O=C(O)c1cc(Cl)c(Cl)cc1C(=O)Nc1cccnc1 | -6.4 |
| O=C(O)CCc1ccc(-c2cccs2)n1-c1ccc(C(=O)O)cc1 | 13.6 |
